The shares of active, inactive and inconclusive entries below differ from those in the screen. Potencies of inconclusive entries are doubtful fits and often do not repeat. The source made the active and inactive calls. Calls come from the whole dose curve; as a rule, active = well fitted activation curve with a large enough effect in the main read-out, with a control signal flat (not every such curve was filed as active); inconclusive = small, poorly fitted or top-dose-only effect, or effect the other way, or a change in a side signal; inactive = flat fitted curve, though single readings scatter.
target: 3',5'-cyclic-AMP phosphodiesterase 4B (Homo sapiens) (UniProt Q07343); assay: qHTS Assay for Inhibitors of PDE-IV (AID 607); settings: HEK293 ACTOne CNG channel cells, membrane potential fluorescence; activation (PDE inhibition): at 22.9 µM (top of the series); for activation (PDE inhibition): % of control where 0% means no effect
Description: NIH Chemical Genomics Center [NCGC]
NIH Molecular Libraries Screening Centers Network [MLSCN]
The cyclic nucleotide phosphodiesterases (PDEs) are proteins that catalyze hydrolysis of 3', 5'-cyclic nucleotides, such as cyclic adenosine monophosphate (cAMP) and cyclic guanosine monophosphate (cGMP), to their corresponding 5'-nucleotide monophosphates. These enzymes play an important role in controlling cellular concentrations of cyclic nucleotides and have a central role in a variety of intracellular signaling events. cAMP PDEs are emerging as a promising class of drug targets in asthma and cardiovascular disease therapeutic areas.
There are no commercially available cell-based screening assays for PDE inhibitors: currently biochemical assays are done using pure substrates (cAMP or cGMP) and purified recombinant PDE enzymes. As with other biochemical screens on intracellular targets, false positives and false negatives may result from issues involving cell membrane permeability, cellular metabolism, and the like.
Here we report the development of a cell-based screening assay for cAMP phosphodiesterase (PDE) inhibitors. The assay is based on the BD ACTOne# technology (BD Biosciences) which utilizes a modified cyclic nucleotide-gated channel (CNG) to monitor intracellular cAMP changes in live cells. The CNG channel is localized on the plasma membrane, and opens when the intracellular cAMP level increases, resulting in ion flux and cell membrane depolarization. The influx of cations through the CNG channel can be quantified using membrane potential (MP) dyes. We modified the BD ACTOne technology to allow the detection of PDE inhibitors, and performed an inhibitor screen for PDE-IV, which is expressed endogenously in HEK293 cells. We optimized this assay in homogeneous 1536-well plate assay format for high throughput screening.
NCGC Assay Protocol Summary:
The medium contained 10% FBS (Invitrogen), 2 mM L-glutamine, and 250 ug/ml G418 (Cellgro) and 1 ug/ml puromycin (Clontech). ACTOneTM parental cells (BD Biosciences) were maintained in the same medium without puromycin.
The activity of the CNG channel was measured by BD ACTOneTM membrane potential dye kit (BD Biosciences). Forskolin, a positive control for cAMP activation and RO 20-1724, a PDE inhibitor, were both purchased from Sigma and solublized in DMSO.
Sequence,Parameter,Value,Description
1,Reagent,3 uL,1000 cells/well 1536 TC treated Black plate
3,Compound,0.5 uL,Kalypsys dispense RO 20-1724 100 uM final [A]
4,Reagent,3 uL,BD membrane potential dye
6,Compound,23 nL,Final concentration was 0.7nM to 22.9uM
8,Detector,EX 535 / EM 590 [B],Envision
Footnotes: [A] The stock 2 mM RO 20-1724 PDE inhibitor was made in 10 % DMSO. Parental cell line received 10 uM forskolin + 100 uM RO. [B] Envsion settings: Bottom Excitation 535/20 nm top emission 590/20, gain of 150 and 5 flashes per well.
Keywords: PDE, PDE-IV, cytotoxicity, flourescence, MLSMR, MLSCN, NIH Roadmap, qHTS, NCGC
Potency is the fitted concentration of half-maximal effect; tags give direction and shape of the fitted curve.

Sequence of UniProt Q07343 (Q07343 whole entry, looked up): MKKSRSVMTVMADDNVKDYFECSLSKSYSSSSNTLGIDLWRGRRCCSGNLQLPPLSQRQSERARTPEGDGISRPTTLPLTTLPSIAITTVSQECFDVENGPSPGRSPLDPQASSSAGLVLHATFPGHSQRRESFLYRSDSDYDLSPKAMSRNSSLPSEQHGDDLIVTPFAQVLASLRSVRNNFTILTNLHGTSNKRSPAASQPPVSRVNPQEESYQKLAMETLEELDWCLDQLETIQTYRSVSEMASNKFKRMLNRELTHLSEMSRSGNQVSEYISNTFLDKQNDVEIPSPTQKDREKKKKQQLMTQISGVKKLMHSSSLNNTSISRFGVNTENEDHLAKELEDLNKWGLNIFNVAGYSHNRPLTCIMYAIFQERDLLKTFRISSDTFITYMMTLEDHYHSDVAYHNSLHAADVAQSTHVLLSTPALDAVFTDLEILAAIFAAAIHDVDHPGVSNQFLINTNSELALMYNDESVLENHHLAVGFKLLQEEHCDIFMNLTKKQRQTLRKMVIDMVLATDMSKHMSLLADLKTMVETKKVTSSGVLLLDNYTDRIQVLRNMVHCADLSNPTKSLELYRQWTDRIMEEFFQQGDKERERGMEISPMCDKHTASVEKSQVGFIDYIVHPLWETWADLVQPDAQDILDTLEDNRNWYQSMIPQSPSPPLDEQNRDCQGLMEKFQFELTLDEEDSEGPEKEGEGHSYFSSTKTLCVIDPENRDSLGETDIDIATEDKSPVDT

SMILES	activation (PDE inhibition)	Potency
Nc1ccccc1S(N)(=O)=O	inactive: 3.88%	
COC(=O)[C@@]1(Cc2ccc(F)cc2)[C@H]2c3cc(C(=O)N(C)C)n(Cc4ccc(C)o4)c3C[C@H]2CN1C(=O)c1ccccc1		inconclusive: 0.631 µM [rising, full curve, poor fit]
NC(N)=N/N=C\c1ccc(O)c(C(=O)O)c1	inactive: -3.51%	
CC(=O)N1CCC[C@@]2(CCN(Cc3nccs3)C2)C1		inconclusive: 1 µM [activator, partial curve, poor fit]
CC(=O)c1cc2ccccc2oc1=O	inactive: 10.5%	
CCC/C=C(\CCC)C(NS(=O)(=O)c1ccc(Cl)cc1)c1ccccc1 (stereo not given)		inconclusive: 6.31 µM [rising, partial curve]
C[C@H](CN(C)C)C(=O)c1ccccc1C(=O)O	inactive: 6.86%	
COC(=O)Cn1c(C(=O)N2CCCC2)cc2c1C[C@H]1CN(C(=O)c3ccccc3)[C@@](Cc3ccccc3)(C(=O)OC)[C@@H]21		inconclusive: 1.26 µM [activator, full curve, poor fit]
COC(=O)[C@@]1(Cc2ccccc2)[C@H]2c3cc(C(=O)N4CCCC4)n(Cc4ccc(O)c(OC)c4)c3C[C@H]2CN1C(=O)c1ccccc1		inconclusive: 1.58 µM [rising, full curve, poor fit]
CCC/C=C(\CCC)C(NC(=O)c1ccccc1)c1ccccc1 (stereo not given)		inconclusive: 3.98 µM [activator, partial curve]
Cc1cccc(CNc2ncnc3ccc(-c4ccccc4C#N)cc23)c1		inconclusive: 12.6 µM [activator, single point]
COc1ccc2nc3c(c([Si](C)(C)C(C)(C)C)c2c1)Cn1c-3cccc1=O		inconclusive: 12.6 µM [rising, single point]
COC(=O)[C@@H]1C[C@H]1[C@@H](NC(=O)c1cc(C)nn1C)c1ccccc1	inactive: 4.89%	
CCC/C=C(\CCC)C(NS(=O)(=O)c1ccccc1)c1ccc(C(F)(F)F)cc1 (stereo not given)		inconclusive: 5.01 µM [rising, partial curve]
CCN(CC)C[C@@H](O)c1ccc2ccc3ccccc3c2c1	inactive: 14.5%	
Nc1nc(Cl)nc2c1ncn2[C@@H]1O[C@@H](CO)[C@@H](O)[C@H]1O		inconclusive: 10 µM [activator, partial curve]
C[C@@H]1C(=O)O[C@@H]2C[C@@]34[C@H]5C[C@@H](C(C)(C)C)[C@@]36[C@@H](OC(=O)[C@@H]6O)O[C@]4(C(=O)O5)[C@@]12O	inconclusive: -30.2%	
COc1ccccc1CNc1ncncc1-c1ccoc1		inconclusive: 7.94 µM [activator, partial curve]
COc1cccc(-c2nc(NCc3ccccc3)c3ccccc3n2)c1		inconclusive: 12.6 µM [rising, single point]
CCCC/C=C/C(NC(=O)c1ccccc1)c1ccccc1 (stereo not given)		inconclusive: 12.6 µM [rising, single point]

SMILES	activation (PDE inhibition)	Potency
CC(C)(C)c1cc(O)c(C(C)(C)C)cc1O		inconclusive: 1.9 µM [activator, single point]
CN1CCc2cc3c(cc2C(=O)Cc2ccc4c(c2C1)OCO4)OCO3		inconclusive: 9.51 µM [activator, partial curve]
CN1[C@H](CC(=O)c2ccccc2)CCC[C@H]1C[C@@H](O)c1ccccc1		inconclusive: 3.01 µM [activator, partial curve]
O=S(=O)(c1ccccc1)N1CCC2(CCN(c3cccc(-c4ccccc4)c3)CC2)CC1	inactive: -17.4%	
COc1cccc(-c2cncnc2NC2CCNCC2)c1	inactive: 9.14%	
O=c1c(-c2cccc(Cl)c2)nc2cncnc2n1Cc1ccc(F)cc1		inconclusive: 10 µM [activator, partial curve]
COCCn1c(C(=O)N(C)C)cc2c1C[C@H]1CN(C(=O)c3ccccc3)[C@@](Cc3ccc(F)cc3)(C(=O)OC)[C@@H]21		inconclusive: 0.794 µM [rising, full curve, poor fit]
O=C(O)CCCC[C@@H]1SC[C@H]2NC(=O)N[C@H]12		inconclusive: 19 µM [inhibitor, single point]
CCCC/C=C/C(NC(=O)c1ccc(C(F)(F)F)cc1)c1ccccc1 (stereo not given)		inconclusive: 6.31 µM [rising, partial curve]
c1ccc(-c2c3ccccc3nc3[nH]c4ccccc4c23)cc1		inconclusive: 10 µM [rising, partial curve]
C[C@@H](C(=O)Nc1ccc2ccccc2c1)[C@@H]1C[C@@]1(C)[C@@H](NC(=O)c1cnccn1)c1ccccc1		inconclusive: 3.16 µM [rising, partial curve]
Clc1ccc(CO[C@@H](Cn2ccnc2)c2ccc(Cl)cc2Cl)cc1		inconclusive: 15.1 µM [rising, partial curve]
CCC/C=C(\CCC)C(NC(=O)c1ccccc1)c1ccc(C(=O)OC)cc1 (stereo not given)		inconclusive: 5.01 µM [rising, partial curve]
COCCn1c(=O)c(-c2ccc(Cl)cc2)nc2cncnc21	inactive: 5.58%	
COc1ccc2[nH]c(C(=O)c3ccccc3)cc2c1		inconclusive: 9.51 µM [activator, partial curve]
Clc1ccc(CSC2=NCCN2)cc1Cl	inactive: -1.12%	
COc1ccc(Oc2ncc3nc(-c4ccc(OC)cc4)c(=O)n(C)c3n2)cc1	inactive: -16.7%	
CS(=O)(=O)N1CCC[C@@]2(CCN(C(=O)Nc3ccccc3)C2)C1	inactive: 8.39%	
COCC(=O)N1CCC2(CCCN(c3cccc(-c4ccccc4)c3)C2)CC1		inconclusive: 10 µM [activator, single point]
CC(C)[C@@H](CC(=O)N[C@@H]1CCCC[C@H]1C(=O)N[C@H](CC(=O)N[C@@H](CCC(=O)O)CC(=O)O)Cc1ccccc1)NC(=O)C[C@H](CO)NC(=O)[C@@H]1CNCC[C@H]1N	inactive: 5.97%	
